Laboratory results published in PubChem BioAssay AID1030 (National Center for Advancing Translational Sciences (NCATS), 2008).
The campaign covered roughly 220,000 compounds. About 16,000 (7.3%) were called active. Inconclusive results, whose numbers are uncertain, are shown with a selection of clear calls. Calls follow the shape of the dose curve; as a rule, active = well fitted inhibition curve with a large enough effect (not every such curve was filed as active); inconclusive = small, poorly fitted or top-dose-only effect, or another doubt; inactive = no such curve, though single readings can be large or run the other way. No potency is given beside an inconclusive call; the fits are too rough.
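For activity, negative = inhibition in this document: plate controls were no enzyme wells and a reference inhibitor.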
Potency is read from the fitted curve at half-maximal effect; tags tell the direction and shape of the fitted curve.

The compounds below were run against Aldehyde dehydrogenase 1A1 (Homo sapiens) (UniProt P00352) (assay: qHTS Assay for Inhibitors of Aldehyde Dehydrogenase 1 (ALDH1A1)). Conditions: Purified ALDH1A1, NADH fluorescence, propionaldehyde substrate; series mostly up to 75.3 µM; activity, negative = inhibition: at the top concentration.
UniProt P00352, sequence (P00352 whole entry, looked up): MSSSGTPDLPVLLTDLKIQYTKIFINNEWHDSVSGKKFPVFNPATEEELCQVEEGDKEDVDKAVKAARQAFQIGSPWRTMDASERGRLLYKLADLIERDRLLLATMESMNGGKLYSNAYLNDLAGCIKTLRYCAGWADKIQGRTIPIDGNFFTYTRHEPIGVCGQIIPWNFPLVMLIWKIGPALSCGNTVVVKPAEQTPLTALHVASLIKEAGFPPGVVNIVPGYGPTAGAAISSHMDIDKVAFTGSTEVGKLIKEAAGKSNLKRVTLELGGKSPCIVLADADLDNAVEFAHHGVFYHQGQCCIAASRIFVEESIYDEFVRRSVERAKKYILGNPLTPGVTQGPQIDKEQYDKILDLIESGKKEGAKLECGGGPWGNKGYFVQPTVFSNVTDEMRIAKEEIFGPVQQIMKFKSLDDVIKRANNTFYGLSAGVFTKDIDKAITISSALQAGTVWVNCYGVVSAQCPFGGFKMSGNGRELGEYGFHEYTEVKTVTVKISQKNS
In the case of CCC[N+]1(CC#CC2(O)CCCCC2)CCOCC1, the “activity, negative = inhibition” value is reported as inactive: 0.819%. For CN1CCN(C(=O)/C(=C\c2cccs2)NC(=O)c2ccco2)CC1, the “activity, negative = inhibition” value was inactive: 4.79%. With CC(C)C=O the “activity, negative = inhibition” value was inactive: -15%. With COc1ccccc1NC(=O)c1nnn(CC(=O)Nc2ccccc2)c1N the Potency was inconclusive [inhibitor, single point]. In the case of O=C(NC1CCSC1=O)c1ccc(Oc2cccc(C(F)(F)F)c2)nc1 (stereo unspecified), the “activity, negative = inhibition” value is reported as inactive: 0.339%. With N#CCCn1c(=O)c(-c2ccccc2)nc2cnc(N3CCOCC3)nc21 the Potency was inconclusive [inhibitor, partial curve]. COc1cc(C=O)c([N+](=O)[O-])cc1OC was tested, and the Potency was active: 11.2 µM. With COC(=O)c1cccc(C23CC4(C2)[C@H](CN(CC2CCCCC2)[C@@H]4c2ccccc2)C3c2ccc(C(F)(F)F)cc2)c1 (stereo partly specified) the “activity, negative = inhibition” value was inactive: 2.97%. For Cc1ccc(-n2c(SCC(=O)Nc3cccc(S(=O)(=O)NC4=NCCCCC4)c3)nc3ccccc3c2=O)cc1C, the Potency was inconclusive [inhibitor, partial curve]. For COc1ccc(NC(=O)c2cc(-c3ccco3)nc3ccccc23)cc1S(=O)(=O)N1CCOCC1, the Potency was inconclusive [inhibitor, partial curve]. In the case of CCOC(=O)c1c(NC(=O)CSc2nnc(C)c(=O)[nH]2)sc(C)c1C, the “activity, negative = inhibition” value is reported as inactive: 1.97%. In the case of Cc1cc(SCn2nnc3ccccc3c2=O)nc2ccccc12, the Potency is reported as inconclusive [inhibitor, single point]. COc1ccc(N2C(=O)c3ccccc3NC2c2ccc(OC)c(CSc3ccccn3)c2)cc1 (stereo unspecified) was tested, and the Potency was inconclusive [inhibitor, partial curve]. With O=C(Cn1nnc(-c2ccc(F)cc2)n1)OCC(=O)c1ccccc1 the Potency was inconclusive [inhibitor, partial curve]. CCOc1ccc(N(CC(=O)NC(C(C)C)C(C)C)S(=O)(=O)c2ccc(OC)c(OC)c2)cc1 was tested, and the “activity, negative = inhibition” value was inactive: -0.517%. CS(=O)(=O)N(Cc1ccccc1)c1ccc(C(=O)Nc2ccccc2Sc2ccccc2)cc1 was tested, and the Potency was inconclusive [inhibitor, single point]. Cc1ccc(S(=O)(=O)/C(C#N)=C/c2c(N3CCN(C)CC3)nc3ccccn3c2=O)cc1 was tested, and the Potency was inconclusive [inhibitor, single point]. In the case of CCOC(=O)c1c(NC(=O)c2noc3c2CCCC3)sc(C)c1C, the Potency is reported as active: 22.4 µM. In the case of CN1C(=O)/C(=C/c2coc3ccc(O)cc3c2=O)SC1=S, the “activity, negative = inhibition” value is reported as inactive: 9.9%. COc1cc(/C=N/NC(N)=S)ccc1OCC(=O)Nc1ccc(C)cc1 was tested, and the Potency was active: 25.1 µM. In the case of CCCC(C(=O)NC(C)(C)C)N(CC1CCCO1)C(=O)c1snc(C(N)=O)c1N (stereo unspecified), the Potency is reported as inconclusive [inhibitor, single point]. COC(=O)c1c(NC(=O)C2C3CCC(C3)C2C(=O)O)sc2c1CCCCC2 (stereo unspecified) was tested, and the Potency was inconclusive [inhibitor, single point]. Cc1ccc(C(=O)c2cc(C)sc2N)cc1 was tested, and the “activity, negative = inhibition” value was inactive: -21.4%. Nc1c2ccccc2nc2ccccc12 (tested in a mixture with another compound) was tested, and the Potency was inconclusive [inhibitor, partial curve]. With Nc1[nH]n(-c2ccccc2)c(=O)c1N=Nc1ccccc1 the “activity, negative = inhibition” value was inactive: 0.228%. In the case of CCN(CCCCN1C(=O)c2ccccc2C1=O)c1ccc2c(c1)C(=O)N(C)C2=O, the Potency is reported as inconclusive [inhibitor, full curve]. In the case of COC(=O)c1cc(NC(=O)c2ccc([N+](=O)[O-])cc2)c(=O)oc1C, the Potency is reported as inconclusive [inhibitor, partial curve]. For O=C(N/N=C\c1cn(-c2ccccc2)nc1-c1ccccc1)c1ccc(Br)o1, the Potency was inconclusive [inhibitor, partial curve]. With CCOP(=O)(OCC)c1nc(/C=C/c2ccccc2)oc1NCc1ccc(OC)cc1 the Potency was inconclusive [inhibitor, partial curve]. O=C(O)CCc1nn2c3ccccc3n(Cc3ccccc3)c2nc1=O was tested, and the Potency was inconclusive [inhibitor, partial curve]. In the case of CN(C)c1ccc(CN2CCC(C(N)=O)CC2)cc1, the Potency is reported as inconclusive [inhibitor, single point]. Cc1ccc(Oc2ccc(NC(=O)c3ccco3)cc2)cc1 was tested, and the Potency was inconclusive [inhibitor, single point]. With Cn1c(=NC(=O)c2ccc3c(c2)OCCO3)sc2cc(S(C)(=O)=O)ccc21 the Potency was inconclusive [inhibitor, single point]. In the case of Cc1ccccc1-n1c(SCC(=O)N2CCN(c3ccccc3)CC2)nnc1-c1ccncc1, the Potency is reported as inconclusive [inhibitor, single point]. For c1ccc(CN2CCN(c3nc4ccccc4c4ccccc34)CC2)cc1, the Potency was inconclusive [inhibitor, single point]. With Cn1nc(C(=O)NCc2ccco2)c2ccccc2c1=O the Potency was active: 12.6 µM. With COc1ccc(-c2nc3cnc(N4CCOCC4)nc3n(C[C@H]3CCCO3)c2=O)cc1 the Potency was inconclusive [inhibitor, single point]. In the case of COC1CCCCC1NS(=O)(=O)c1ccccc1 (stereo unspecified), the Potency is reported as inconclusive [inhibitor, single point]. O=C(NCC1CCCO1)C(=O)c1c[nH]c2ccccc12 (stereo unspecified) was tested, and the “activity, negative = inhibition” value was inactive: 2.87%. For Cc1ccc(N2C(=O)N(CC(=O)Nc3ccc(C)cc3C)C(=O)C2C)cc1 (stereo unspecified), the “activity, negative = inhibition” value was inactive: -14.4%. CCOC(=O)/C=C/C(=O)Nc1ccc(S(=O)(=O)N2CCCCCC2)cc1 was tested, and the Potency was active: 3.55 µM. For COc1ccc(-n2c(C)cc(-c3csc(NC(=O)c4ccc(S(=O)(=O)N(C)C)cc4)n3)c2C)cc1, the Potency was active: 2.24 µM. C=CCc1cccc(/C=N/NC(=O)CCC(=O)Nc2ccc(F)cc2)c1O was tested, and the “activity, negative = inhibition” value was inactive: 1.31%. With Cc1nn(-c2ccccn2)c2c1-c1nc(N)ncc1CC2 the Potency was inconclusive [inhibitor, partial curve]. With Oc1ccc(N2CCN(C(c3ccncc3)c3nnnn3C3CCCC3)CC2)cc1 (stereo unspecified) the Potency was inconclusive [inhibitor, single point]. O=C1C(Cl)=C(NCC2CCCO2)C(=O)N1c1ccccc1 (stereo unspecified) was tested, and the “activity, negative = inhibition” value was inactive: 4.78%. C=C(C)C1CC=C(C)C(OC(C)=O)C1 (stereo unspecified) was tested, and the “activity, negative = inhibition” value was inactive: -3.48%. For Cc1nn(C)cc1/C=N/NC(=S)Nc1ccccc1, the Potency was active: 25.1 µM. With O=C1CCc2nc3ccccc3c(=O)n2N1 the Potency was inconclusive [inhibitor, single point]. In the case of CCOC(=O)COc1ccc2c(C#N)c3ccccn3c2c1, the Potency is reported as inconclusive [inhibitor, single point]. COc1ccccc1-c1cc(C(F)(F)F)c(C#N)c(=O)[nH]1 was tested, and the Potency was inconclusive [inhibitor, partial curve]. COc1ccc(N2C(S)=C(C#N)C(=O)NC2c2ccco2)cc1 (stereo unspecified) was tested, and the Potency was inconclusive [inhibitor, single point]. For O=C(Cn1c(=O)oc2cc(S(=O)(=O)N3CCCC3)ccc21)N1CCN(c2ccccc2)CC1, the Potency was inconclusive [inhibitor, full curve, poor fit]. In the case of N#Cc1c(-c2ccccc2)cc(C2CC2)nc1SCC(=O)c1cccs1, the “activity, negative = inhibition” value is reported as inactive: 5.54%. In the case of O=c1c2cc(N3CCOCC3)ccc2[nH]c(=S)n1CCN1CCCC1, the Potency is reported as inconclusive [inhibitor, single point]. CC1CN(S(=O)(=O)c2ccc(C(=O)Nc3ccc(S(=O)(=O)Nc4nccs4)cc3)cc2)CC(C)O1 (stereo unspecified) was tested, and the Potency was inconclusive [inhibitor, partial curve, poor fit]. In the case of CCN(C(=O)COC(=O)c1cc(-c2ccc3cc(OC)ccc3c2)nc2ccccc12)C1CCS(=O)(=O)C1 (stereo unspecified), the Potency is reported as inconclusive [inhibitor, partial curve]. In the case of COc1ccc(N2C(=O)C3C4C=CC(CC4)C3C2=O)c([N+](=O)[O-])c1 (stereo unspecified), the Potency is reported as inconclusive [inhibitor, single point]. For O=C(CSCC(=O)N1CCCCC1)Nc1nc(-c2cccs2)cs1, the Potency was inconclusive [inhibitor, single point]. In the case of COc1cc2ccccc2cc1C(=O)NC(=S)Nc1cccc(C(=O)O)c1, the Potency is reported as inconclusive [inhibitor, single point]. c1cc(CSSCc2ccncc2)ccn1 was tested, and the Potency was active: 3.98 µM. CCC(=O)Nc1nonc1-c1nc2ccccc2n1Cc1cccc2ccccc12 was tested, and the Potency was inconclusive [inhibitor, single point]. For CCOc1ccccc1NC(=O)CCS(=O)(=O)c1cccc2nonc12, the Potency was inconclusive [inhibitor, single point]. With COc1ccc(NC(=O)c2csc(Cc3ccc(Cl)cc3)n2)cc1 the “activity, negative = inhibition” value was inactive: -2.71%. With COC(=O)c1ccc2[nH]c(C)c(CN3CCCC3)c(=O)c2c1 the Potency was inconclusive [inhibitor, partial curve]. In the case of C=CCNc1nnc(-c2ccncc2)s1, the Potency is reported as inconclusive [inhibitor, partial curve]. COc1ccc(-c2noc(CSc3nc(N)c(-c4ccccc4)c(=O)[nH]3)n2)cc1OC was tested, and the Potency was inconclusive [inhibitor, partial curve]. Cc1ccccc1C(N)=O was tested, and the “activity, negative = inhibition” value was inactive: -3.65%. In the case of COc1cccc(CN2CCNC(=O)C2CC(=O)NCCOc2cccnc2)c1OC (stereo unspecified), the Potency is reported as inconclusive [inhibitor, single point]. In the case of CC(C)OCCCN1CN(S(=O)(=O)c2cccc(Cl)c2)c2nc3ccccc3nc21, the Potency is reported as inconclusive [inhibitor, single point]. In the case of O=C1c2cccnc2C(Nc2ccc(Br)cc2)N1Cc1cccs1 (stereo unspecified), the Potency is reported as active: 6.31 µM.
